{"source": "patent US7101894B2", "about": "(priority 2001, dated 2006)", "molecular_target": "hUS28 (Human cytomegalovirus, UniProt P69332)", "sequence (P69332 whole entry)": "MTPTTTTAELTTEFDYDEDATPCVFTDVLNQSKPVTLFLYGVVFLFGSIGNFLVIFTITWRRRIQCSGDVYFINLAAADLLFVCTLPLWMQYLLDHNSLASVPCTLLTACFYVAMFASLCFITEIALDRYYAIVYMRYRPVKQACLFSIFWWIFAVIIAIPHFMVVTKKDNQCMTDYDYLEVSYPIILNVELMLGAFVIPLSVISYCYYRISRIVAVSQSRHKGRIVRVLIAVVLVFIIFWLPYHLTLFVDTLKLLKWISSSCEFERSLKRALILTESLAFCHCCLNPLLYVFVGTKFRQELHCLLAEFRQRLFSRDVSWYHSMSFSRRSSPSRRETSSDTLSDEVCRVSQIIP", "conditions": "read-out: hUS28 IC50; inhibition of 125I-fractalkine binding; hUS28 transfected murine cells; 2–4 hours at 4° C.", "protocol": "Radioligand binding assays were carried our in the following manner. The target cells typically used in these assays were either Rhesus dermal fibroblasts which had been infected with Rhesus CMV for 2–4 days, or hUS28 transfected murine cells. Lots of cells verified for fractalkine binding were frozen until use. For the assay, cells were thawed, washed, and resuspended in assay buffer(20 mM HEPES pH 7.1, 140 mM NaCl, 1 mM CaCl2, 5 mM MgCl2, and with 0.2% bovine serum albumin) to a concentration of from 4×10^5 to 5×10^6 cells/ml. Compounds were prepared as 10×solutions in 20% DMSO, and 0.02 ml was placed in assay plates. Next 0.09 ml of cells was added to the assay plates containing the compounds. Lastly 0.09 ml of ^125I-fractalkine diluted in assay buffer (final concentration ˜50 pM, with 20,000–50,000 cpm per well) was added, the plates sealed and incubated for 2–4 hours at 4° C. on a shaker platform. The assay plates were harvested using Packard GF/B filter plates, pre-soaked in 0.3% polyethyleneimmine solution, on a Packard vacuum cell harvester. Scintillation fluid was added to all wells, the plates were sealed and counted in a Top Count scintillation counter. Control wells containing either diluent only (for total counts) or excess unlabeled fractalkine (1 μg/ml, for non-specific binding) were used to calculate the percent of total inhibition. […]"}
{"smiles": "CC[C@H]1C[N@]2CC[C@H]1C[C@H]2[C@H](OC(=O)Cc1cc(C)no1)c1ccnc2ccccc12", "note": "[Compound 164]", "values": [{"measurement": "IC50", "result": "1 to 10", "unit": "µM"}]}
